# Measurements from paper PMC4336329 (PLoS ONE, 2015).
# In all, about 310,000 compounds went through this assay and about 2,200 (0.71%) showed an effect of 50% or more. Effects have a minus sign here. The list shows a part of the results.
# Target: human ether-à-go-go-related gene (hERG) potassium channel (human, UniProt Q12809)
# Test: primary screen, population patch clamp on CHO cells stably expressing hERG
# Sequence of human ether-à-go-go-related gene (hERG) potassium channel (Q12809 whole entry, looked up): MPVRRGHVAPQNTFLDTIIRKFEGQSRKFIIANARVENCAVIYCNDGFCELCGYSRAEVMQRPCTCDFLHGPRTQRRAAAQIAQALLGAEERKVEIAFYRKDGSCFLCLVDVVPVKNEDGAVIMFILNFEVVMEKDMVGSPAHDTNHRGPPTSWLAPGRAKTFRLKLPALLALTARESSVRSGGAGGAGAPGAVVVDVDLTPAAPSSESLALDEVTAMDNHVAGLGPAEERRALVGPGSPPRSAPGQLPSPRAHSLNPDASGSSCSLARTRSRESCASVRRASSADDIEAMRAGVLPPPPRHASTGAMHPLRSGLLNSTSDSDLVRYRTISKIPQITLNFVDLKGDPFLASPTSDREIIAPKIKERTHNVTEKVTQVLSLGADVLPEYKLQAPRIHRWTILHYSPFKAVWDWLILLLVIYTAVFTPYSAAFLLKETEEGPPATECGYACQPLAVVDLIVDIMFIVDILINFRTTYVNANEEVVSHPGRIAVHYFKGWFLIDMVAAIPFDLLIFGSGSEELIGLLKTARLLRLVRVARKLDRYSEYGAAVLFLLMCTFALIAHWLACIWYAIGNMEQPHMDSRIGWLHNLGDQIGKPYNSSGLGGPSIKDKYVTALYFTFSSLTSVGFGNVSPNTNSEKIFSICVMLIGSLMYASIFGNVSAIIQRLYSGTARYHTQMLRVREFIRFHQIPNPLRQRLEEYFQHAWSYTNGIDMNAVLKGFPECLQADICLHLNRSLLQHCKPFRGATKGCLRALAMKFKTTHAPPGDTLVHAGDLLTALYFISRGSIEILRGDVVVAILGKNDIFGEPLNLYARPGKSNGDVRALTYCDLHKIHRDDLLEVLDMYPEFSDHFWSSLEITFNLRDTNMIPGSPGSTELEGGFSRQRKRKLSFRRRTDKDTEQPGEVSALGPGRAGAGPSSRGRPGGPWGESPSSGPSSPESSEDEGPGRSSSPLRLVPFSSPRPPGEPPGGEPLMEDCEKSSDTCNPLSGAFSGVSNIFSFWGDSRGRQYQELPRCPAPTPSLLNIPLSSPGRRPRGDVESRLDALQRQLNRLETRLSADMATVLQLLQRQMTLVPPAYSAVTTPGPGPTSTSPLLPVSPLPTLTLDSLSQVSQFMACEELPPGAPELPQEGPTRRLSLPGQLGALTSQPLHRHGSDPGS
row,Compound,"hERG current change (%, negative = inhibition) at 1uM [%]"
1,CC(C)(C)S(=O)(=O)/C(C#N)=N/Nc1ccc(Cl)cc1,23.3
2,Cc1cc(C)c(NC(=O)CS(=O)CC(=O)Nc2ccc(N3CCOCC3)cc2)c(C)c1 (stereo not shown),7.99
3,CC(=O)N1N=C(c2cccc([N+](=O)[O-])c2)OC1c1ccc(Cl)cc1Cl (stereo not shown),14.4
4,O=C(NC1CC1)c1ccc2c(c1)N(Cc1ccccc1)CCS2,6.09
5,NC(=O)NC(=O)Nc1ccccc1Cl,6.75
6,CN1CCN(C(=O)c2ccccc2N(Cc2ccccc2)S(=O)(=O)c2ccccc2)CC1,9.82
7,CC(C)Oc1ccc(Cc2n[nH]c(=S)n2Cc2ccccc2)cc1Cl,5.04
8,Cn1c(Cc2cccs2)nnc1SCC(=O)Nc1ccccc1,11.6
9,CC(C)(C)c1ccc(NC(=O)CCNC(=O)c2ccco2)cc1,14.1
10,CC(OC(=O)/C=C/c1ccco1)C(=O)Nc1cccc([N+](=O)[O-])c1 (stereo not shown),8.99
11,O=C(NCCCO)c1cc([N+](=O)[O-])cc2c1C=Cc1ccccc1O2,-12.9
12,CCN(CC(=O)Nc1cccc(F)c1)CC(=O)Nc1ccccc1OC,-0.967
13,COC(=O)C1CCN(c2nc3ccccc3nc2C(C#N)C(=O)OCC(C)C)CC1 (stereo not shown),6.17
14,O=C(COc1ccccc1Cl)Nc1cc(Cl)ccc1Oc1ccccc1,11.2
15,CCS(=O)(=O)NCCc1csc(-c2ccccc2)n1,5.16
16,CCOC(=O)N1CCC(NC(=O)c2cc(S(=O)(=O)N3CCCC3)cn2C)CC1,6.54
17,CCN(CC(=O)Nc1c(F)cccc1F)C(=O)c1ccc(NC(=O)CC2SC(N3CCCC3)=NC2=O)cc1 (stereo not shown),6.54
18,O=[N+]([O-])c1nn(-c2ccc3c(c2)OCCO3)n(O)c1=NCCC1=CCCCC1,6.29
19,Cc1cc(NC(=O)c2ccc(Cl)cc2)c(C)cc1O,5.06
20,CCn1ccnc1CN(C)Cc1cn(-c2cc(C)ccc2C)nc1-c1ccccc1,-19.5
21,O=S(=O)(c1ccc(OCC(O)CN2CCN(c3ccc(F)cc3)CC2)cc1)N1CCOCC1 (stereo not shown),-0.0571
22,CC1CCN(S(=O)(=O)c2ccc(NC(=O)c3cccs3)cc2)CC1,7.51

row,Compound,"hERG current change (%, negative = inhibition) at 1uM [%]"
1,O=C(O)c1cccc(Nc2ncnc3ccccc23)c1,14
2,CCCNC(=S)N1CCN(Cc2ccc3c(c2)OCO3)CC1.O=C(O)C(=O)O,-5.97
3,COc1ccc(C(=O)COC(=O)C2CC3CCCC(C2)C3=O)cc1Br (stereo not shown),7.42
4,CC(C)(C)N1CCC1C(N)=O (stereo not shown),3.68
5,O=C(CCCOc1ccc(Cl)cc1)NCC1CCCO1 (stereo not shown),10.2
6,CC(C)n1c(=O)[nH]c2cc(C(=O)Nc3ccccc3)ccc21,13.6
7,COc1ccc(C(=O)N/N=C2/SCC(=O)N2Cc2ccc3c(c2)OCO3)cc1OC,11.1
8,CCCC(=O)Nc1nnc(SCC(=O)N2CCCCC2)s1,6.17
9,CC[C@H]1c2[nH]c3ccccc3c2C[C@@H]2C(=O)N(c3ccc(F)cc3)C(=O)N21,11.6
10,CN1CCN(C(=S)NC(=O)c2ccco2)CC1,4.35
11,COc1ccc(N(CC(=O)N2CCN(c3ccccc3)CC2)S(=O)(=O)c2ccc(C)cc2)cc1,15
12,CCOC(=O)C(=O)Nc1ccc([N+](=O)[O-])cc1OC,7.06
13,CCOC(=O)C1CCCN(C(=O)c2cccc(S(=O)(=O)N(Cc3ccccc3)c3ccccc3OC)c2)C1 (stereo not shown),-11.6
14,COc1ccc(C(=O)Nc2ncc3c(n2)CC(c2ccco2)CC3=O)cc1 (stereo not shown),-3.46
15,O=C(/C=C/c1ccccc1Cl)Nn1cnc2ccccc2c1=O,11.4
16,Cc1nnc2sc(-c3cccc(NC(=O)c4cccnc4)c3)nn12,-0.992
17,CC(C)(C)c1ccc(OCc2nnc(SCC(N)=O)n2N)cc1,-3.25
18,COc1ccc(NC(=O)c2ccc(COc3ccccc3OC)o2)cc1OC,8.76
19,COC(=O)c1ccccc1NC(=O)CSc1[nH]c(=O)cc(C)c1C#N,18
20,COc1ccc(NC(=O)CSc2nnc(-c3cnccn3)n2C)cc1OC,21.9
21,COc1ccc(NC(=O)CN(C)C(=O)c2cccnc2Sc2ccc(C)c(C)c2)cc1,0.0587
